What was measured:
[1] = tested on: human peripheral blood mononuclear cells (PBMC); assay: PBMC cytotoxicity assay (CellTiter-Glo); type: cell-based; conditions: 48 h, human PBMC stimulated with IFN-γ and LPS, 2 days, read-out: PBMC TOX pIC50 (converted)
[2] = target: indoleamine 2, 3-dioxygenase (IDO1) (Homo sapiens, UniProt P14902); assay: IDO1 PBMC RapidFire MS assay (kynurenine detection by mass spectrometry); type: cell-based; conditions: human PBMC stimulated with IFN-γ and LPS, 2 days, read-out: PBMC pIC50 (converted)
Sequence of UniProt P14902 (P14902 whole entry): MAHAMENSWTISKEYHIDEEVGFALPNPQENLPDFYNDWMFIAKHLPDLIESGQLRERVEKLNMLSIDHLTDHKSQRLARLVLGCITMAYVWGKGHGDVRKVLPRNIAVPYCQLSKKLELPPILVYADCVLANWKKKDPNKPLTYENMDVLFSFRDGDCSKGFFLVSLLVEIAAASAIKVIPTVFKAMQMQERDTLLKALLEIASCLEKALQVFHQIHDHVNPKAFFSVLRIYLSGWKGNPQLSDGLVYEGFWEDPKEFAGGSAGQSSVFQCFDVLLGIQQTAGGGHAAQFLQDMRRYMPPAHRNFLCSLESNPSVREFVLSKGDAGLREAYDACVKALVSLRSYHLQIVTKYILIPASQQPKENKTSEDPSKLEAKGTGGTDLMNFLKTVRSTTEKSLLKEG
Method: Compounds of the present invention were tested via high-throughput cellular assays utilizing detection of kynurenine via mass spectrometry and cytotoxicity as end-points. […] Compounds with IDO1 inhibitory properties decreased the amount of kynurenine produced by the cells via the tryptophan catabolic pathway. Cellular toxicity due to the effect of compound treatment was measured using CellTiter-Glo® reagent (CTG) (Promega Corporation, Madison, Wis.), which is based on luminescent detection of ATP, an indicator of metabolically active cells.
In preparation for the assays, test compounds were serially diluted 3-fold in DMSO from a typical top concentration of 1mM or 5 mM and plated at 0.5 μL in 384-well, polystyrene, clear bottom, tissue culture treated plates with lids (Greiner Bio-One, Kremsmunster, Austria) to generate 11-point dose response curves. Low control wells (0% kynurenine or 100% cytotoxicity) contained either 0.5 μL of DMSO in the presence of unstimulated (-IFN-γ/-LPS) PBMCs for the mass spectrometry assay or 0.5 μL of DMSO in the absence of cells for the cytotoxicity assay, and high control wells (100% kynurenine or 0% cytotoxicity) contained 0.5 μL of DMSO in the presence of stimulated (+IFN-γ/+LPS) PBMCs for both the mass spectrometry and cytotoxicity assays.
Frozen stocks of PBMCs were washed and recovered in RPMI 1640 medium (Thermo Fisher Scientific, Inc., Waltham, Mass.) supplemented with 10% v/v heat-inactivated fetal bovine serum (FBS) (Thermo Fisher Scientific, Inc., Waltham, Mass.), and 1× penicillin-streptomycin antibiotic solution (Thermo Fisher Scientific, Inc., Waltham, Mass.). The cells were diluted to 1,000,000 cells/mL in the supplemented RPMI 1640 medium. 50 μL of either the cell suspension, for the mass spectrometry assay, or medium alone, for the cytotoxicity assay, were added to the low control wells, on the previously prepared 384-well compound plates, resulting in 50,000 cells/well or 0 cells/well respectively. IFN- y and LPS were added to the remaining cell suspension at final concentrations of 100 ng/ml and 50 ng/ml respectively, and 50 μL of the stimulated cells were added to all remaining wells on the 384-well compound plates. The plates, with lids, were then placed in a 37° C, 5% CO2 humidified incubator for 2 days.
Following incubation, the 384-well plates were removed from the incubator and allowed to equilibrate to room temperature for 30 minutes. For the cytotoxicity assay, CellTiter-Glo® was prepared according to the manufacturer's instructions, and 40 μL were added to each plate well. After a twenty minute incubation at room temperature, luminescence was read on an EnVision® Multilabel Reader (Perkin Elmer Inc., Waltham, Mass.). For the mass spectrometry assay, 10 μL of supernatant from each well of the compound-treated plates were added to 40 μL of acetonitrile, containing 10 μM of an internal standard for normalization, in 384-well, polypropylene, V-bottom plates (Greiner Bio-One, Kremsmunster, Austria) to extract the organic analytes. Following centrifugation at 2000 rpm for 10 minutes, 10 μL from each well of the acetonitrile extraction plates were added to 90 μL of sterile, distilled H2O in 384-well, polypropylene, V-bottom plates for analysis of kynurenine and the internal standard on the RapidFire 300 (Agilent Technologies, Santa Clara, Calif.) and 4000 QTRAP MS (SCIEX, Framingham, Mass.). MS data were integrated using Agilent Technologies' RapidFire Integrator software, and data were normalized for analysis as a ratio of kynurenine to the internal standard.

Row | Structure (SMILES) | IC50 [2] [µM] | IC50 [1] [µM]
1 | CC(C)CN(CC(C)C)C(=O)C[C@H]1CC[C@H](c2ccnc3ccccc32)CC1 [Example 2, N,N-diisobutyl-2-(trans-4-(quinolin-4-yl)cyclohexyl)acetamide] | 3.98 | > 10
2 | CC(C)CC(CC(C)C)NC(=O)C[C@H]1CC[C@H](c2ccnc3ccccc32)CC1 [Example 3] | 0.02 | > 10
3 | CC(C)C(CO)NC(=O)C[C@H]1CC[C@H](c2ccnc3ccccc32)CC1 (stereo partly shown) [Example 8] |  | > 10
4 | CC(C)C(CO)NC(=O)C[C@H]1CC[C@@H](c2ccnc3ccccc32)CC1 (stereo partly shown) [Example 9] | > 3.16 | > 10
5 | CC(CCO)NC(=O)C[C@H]1CC[C@@H](c2ccnc3ccccc32)CC1 (stereo partly shown) [Example 11] | > 10 | > 10
6 | CC(C)N(CCO)C(=O)CC1CCC(c2ccnc3ccccc23)CC1 (stereo not shown) [Example 12, N-(2-hydroxyethyl)-N-isopropyl-2-(4-(quinolin-4-yl)cyclohexyl) acetamide] | > 10 | > 10
7 | CC(C)[C@H](NC(=O)C[C@H]1CC[C@H](c2ccnc3ccccc32)CC1)C(N)=O [Example 15] | > 10 | > 10
8 | c1ccc2[nH]c(C[C@H]3CC[C@@H](c4ccnc5ccccc54)CC3)nc2c1 [Example 17] | 0.1 | > 10
9 | C[C@@H](c1nc2cccc(Cl)c2[nH]1)C1CCC(c2ccnc3ccccc23)CC1 (stereo partly shown) [Example 21] | 0.0501 | > 10
10 | c1ccc(-c2coc(C[C@H]3CC[C@H](c4ccnc5ccccc54)CC3)n2)cc1 [Example 24, 4-phenyl-2-((trans-4-(quinolin-4-yl)cyclohexyl)methyl)oxazole] |  | > 10
11 | CC(C)Cc1coc(C[C@H]2CC[C@@H](c3ccnc4ccccc43)CC2)n1 [Example 27] | 1.58 | > 10
12 | CC(C)c1coc(C[C@H]2CC[C@H](c3ccnc4ccccc43)CC2)n1 [Example 28] | > 10 | > 10
13 | c1ccc(-c2c[nH]c(C[C@H]3CC[C@@H](c4ccnc5ccccc54)CC3)n2)cc1 [Example 31] | 0.0794 | > 10
14 | C[C@@H](c1nc(-c2ccccc2)c[nH]1)C1CCC(c2ccnc3ccccc23)CC1 (stereo partly shown) [Example 32] | 0.0158 | > 10
15 | C[C@@H](c1nc(-c2cccc(Cl)c2)c[nH]1)[C@H]1CC[C@@H](c2ccnc3ccccc32)CC1 [Example 35] | 0.158 | > 10
16 | CC(C)c1nnc(C[C@H]2CC[C@@H](c3ccnc4ccccc43)CC2)[nH]1 [Example 36, 4-(cis-4-((5-isopropyl-4H-1,2,4-triazol-3-yl)methyl)cyclohexyl) quinoline] |  | > 10
17 | CC(C)c1nnc(C[C@H]2CC[C@H](c3ccnc4ccccc43)CC2)[nH]1 [Example 37, 4-(trans-4-((5-isopropyl-4H-1,2,4-triazol-3-yl)methyl)cyclohexyl)quinoline] | 6.31 | > 10
18 | O=c1oc2ccccc2n1C[C@H]1CC[C@@H](c2ccnc3ccccc32)CC1 [Example 38, 3-((cis-4-(quinolin-4-yl)cyclohexyl)methyl)benzo[d]oxazol-2(3H)-one] | 2 | > 10
19 | CC(C)c1cn(C[C@H]2CC[C@@H](c3ccnc4ccccc43)CC2)cn1 [Example 42, 4-(cis-4-((4-isopropyl-1H-imidazol-1-yl)methyl)cyclohexyl)quinoline] | 3.98 | > 10
20 | CC(C)(NC[C@H]1CC[C@@H](c2ccnc3ccccc32)CC1)c1ccccc1 [Example 45, 2-phenyl-N-((cis-4-(quinolin-4-yl)cyclohexyl)methyl)propan-2-amine] |  | > 10

Now from value to compound, other results behind:

Row | IC50 [2] [µM] | Structure (SMILES) | IC50 [1] [µM]
21 | 2 | CC(C)CN(CC(C)C)C(=O)C[C@H]1CC[C@@H](c2ccnc3ccccc32)CC1 [Example 1, N,N-diisobutyl-2-(cis-4-(quinolin-4-yl)cyclohexyl)acetamide] | > 10
22 | 0.126 | CC(C)CC(CC(C)C)NC(=O)C[C@H]1CC[C@@H](c2ccnc3ccccc32)CC1 [Example 4] | > 10
23 | 2.51 | C[C@H]1CC[C@H](NC(=O)C[C@H]2CC[C@@H](c3ccnc4ccccc43)CC2)CC1 [Example 5] | > 10
24 | 0.158 | C[C@H]1CC[C@H](NC(=O)C[C@H]2CC[C@H](c3ccnc4ccccc43)CC2)CC1 [Example 6] | > 10
25 | 0.158 | CC(C)C(NC(=O)C[C@H]1CC[C@@H](c2ccnc3ccccc32)CC1)C(C)C [Example 7] | > 10
26 | 3.98 | CC(CCO)NC(=O)C[C@H]1CC[C@H](c2ccnc3ccccc32)CC1 (stereo partly shown) [Example 10] | > 10
27 | > 10 | CC(C)N(CCCO)C(=O)CC1CCC(c2ccnc3ccccc23)CC1 (stereo not shown) [Example 13, N-(3-hydroxypropyl)-N-isopropyl-2-(4-(quinolin-4-yl)cyclohexyl) acetamide] | > 10
28 | > 10 | CC(C)[C@H](NC(=O)C[C@H]1CC[C@@H](c2ccnc3ccccc32)CC1)C(N)=O [Example 14] | > 10
29 | > 10 | CC(C)[C@@H](NC(=O)C[C@H]1CC[C@@H](c2ccnc3ccccc32)CC1)C(N)=O [Example 16] | > 10
30 | 1.58 | c1ccc2[nH]c(C[C@H]3CC[C@H](c4ccnc5ccccc54)CC3)nc2c1 [Example 18] | > 10
31 | 0.00501 | C[C@@H](c1nc2ccccc2[nH]1)[C@H]1CC[C@@H](c2ccnc3ccccc32)CC1 [Example 19] | > 10
32 | 0.158 | C[C@@H](c1nc2ccccc2[nH]1)[C@H]1CC[C@H](c2ccnc3ccccc32)CC1 [Example 20] | > 10
33 | 3.98 | c1ccc2oc(C[C@H]3CC[C@@H](c4ccnc5ccccc54)CC3)nc2c1 [Example 22, 2-(((1s,4s)-4-(quinolin-4-yl)cyclohexyl)methyl)benzo[d]oxazole] | > 10
34 | > 10 | c1ccc2oc(C[C@H]3CC[C@H](c4ccnc5ccccc54)CC3)nc2c1 [Example 23, 2-(((1 r, 4r)-4-(quinolin-4-yl)cyclohexyl)methyl)benzo[d]oxazole] | > 10
35 | 2 | c1ccc(-c2coc(C[C@H]3CC[C@@H](c4ccnc5ccccc54)CC3)n2)cc1 [Example 25] | > 10
36 | 3.98 | CC(C)Cc1coc(C[C@H]2CC[C@H](c3ccnc4ccccc43)CC2)n1 [Example 26] | > 10
37 | 2 | CC(C)c1coc(C[C@H]2CC[C@@H](c3ccnc4ccccc43)CC2)n1 [Example 29] | > 10
38 | 1.26 | c1ccc(-c2c[nH]c(C[C@H]3CC[C@H](c4ccnc5ccccc54)CC3)n2)cc1 [Example 30, 4-(trans-4-((4-ohenv1-1H-imidazol-2-yl)methyl)cyclohexyl)quinoline] | > 10
39 | 0.0794 | C[C@@H](c1nc(-c2ccccc2Cl)c[nH]1)C1CCC(c2ccnc3ccccc23)CC1 (stereo partly shown) [Example 33] | > 10
40 | 0.501 | C[C@@H](c1nc(-c2ccc(Cl)cc2)c[nH]1)[C@H]1CC[C@@H](c2ccnc3ccccc32)CC1 [Example 34] | > 10
41 | 2.51 | O=c1oc2ccccc2n1C[C@H]1CC[C@H](c2ccnc3ccccc32)CC1 [Example 39] | > 10
42 | 2.51 | O=c1[nH]c2ccccc2n1C[C@H]1CC[C@@H](c2ccnc3ccccc32)CC1 [Example 40] | > 10
43 | 0.316 | O=c1[nH]c2ccccc2n1C[C@H]1CC[C@H](c2ccnc3ccccc32)CC1 [Example 41] | > 10
